Laboratory results taken from PubChem BioAssay AID2546 (National Center for Advancing Translational Sciences (NCATS), 2010).
Out of some 310,000 compounds screened, about 11,000 (3.5%) were called active. Inconclusive means that the source gave no clear call. Such entries were picked first, then a sample of the others. The call rests on the fitted dose curve; in most records, active means well fitted inhibition curve with a large enough effect; inconclusive means small, poorly fitted or top-dose-only effect, or effect the other way; inactive means flat fitted curve, though single readings scatter. Potencies of inconclusive entries are left out as doubtful fits.

Test: VP16 counterscreen qHTS for inhibitors of ROR gamma transcriptional activity;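 further: Gal4-VP16 expression switched on by copper sulfate through the metallothionein promoter; nearly all actives have a fitted effect of over 50% in size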
Conditions: Drosophila S2 Gal4-VP16 UAS-luciferase, luminescence, 20 h; series mostly up to 53.6 µM
Potency means the concentration at half of the fitted maximal effect; tags describe the fitted curve by direction and shape.

| Structure (SMILES) | Potency |
| --- | --- |
| Cc1ccc[n+](/C(=C\C(=C=[N-])C#N)C(=O)c2ccc(Cl)cc2)c1 | inconclusive [inhibitor, single point] |
| CCN1C(=O)/C(=C2/C=Cc3cc(C)ccc3N2CC)N(C)C1=S | inconclusive [inhibitor, single point] |
| c1csc(C2=Nn3c(nnc3-c3ccncc3)SC2)c1 | inconclusive [inhibitor, full curve, poor fit] |
| N#C/C(C(=O)NCc1ccco1)=C1/SC(Cc2ccc(Cl)cc2)C(=O)N1c1ccccc1 (stereo unspecified) | inconclusive [inhibitor, single point] |
| Cc1nc2ccc(-c3nc4ccc(N)cc4[nH]3)cc2[nH]1 | active: 8.91 µM |
| COc1ccc2nc(-n3c(O)c(C4=c5ccccc5=NC4=O)[nH]c3=S)sc2c1 | inconclusive [inhibitor, single point] |
| C=CCOC(=O)C1=C[C@H](c2coc3ccccc3c2=O)C[C@H](OCc2ccc(CO)cc2)O1 | inconclusive [inhibitor, partial curve] |
| Cc1ccc(/C=C/C(=O)Nc2nccs2)o1 | inconclusive [inhibitor, single point] |
| Cc1cnc(C)c(N2CCN(Cc3nc(-c4ccccc4)no3)CC2)n1 | inactive |
| O=[N+]([O-])c1cc(/C=N/N/C(=N/c2ccccn2)c2ccccn2)ccc1O | active: 4.47 µM |
| COc1ccccc1OCc1nc2ccccc2s1 | inconclusive [inhibitor, partial curve] |
| O=S(=O)(Nc1ccc(N2CCCCC2)cc1)c1cccs1 | inconclusive [inhibitor, partial curve] |
| COc1ccc(OC)c(-n2c(-c3cc(-c4ccco4)[nH]n3)n[nH]c2=S)c1 | inactive |
| O=C(CSc1nnc(C2COc3ccccc3O2)o1)NC1CCCCC1 (stereo unspecified) | inactive |
| O=C(CCN1Cc2ccccc2C1)c1ccc2c(c1)OCCO2 | active: 15.8 µM |
| CCNC(=S)NNc1nc(N2CCCCC2)nc(N2CCOCC2)n1 | inconclusive [inhibitor, single point] |
| CC(=O)Nc1sc2c(c1-c1nc3ccccc3s1)CCN(C(C)C)C2 | active: 11.2 µM |
| CC1Cc2ccccc2N1C(=O)Cn1c(=O)oc2cc(S(=O)(=O)NC3CCCC3)ccc21 (stereo unspecified) | inactive |
| CC1(C(=O)Oc2ccccc2)Cc2ccccc2C(=O)O1 (stereo unspecified) | inconclusive [inhibitor, single point] |
| Cc1ccccc1Cn1c(C)nc2ccccc21 | active: 3.55 µM |
| Cc1cc(C(=O)CN2C(=O)c3cccc(N)c3C2=O)c(C)n1Cc1cccs1 | inconclusive [inhibitor, full curve, poor fit] |
| O=C(CCl)Nc1cccc(Oc2ccccc2)c1 | inconclusive [inhibitor, partial curve, poor fit] |
| CCCNC(=O)c1cc(-c2ccc3c(c2)OCO3)on1 | inconclusive [inhibitor, single point] |

| Structure (SMILES) | Potency |
| --- | --- |
| CCOC(=O)c1cc(-c2cccc(C(F)(F)F)c2)nc2nc(SC)[nH]c(=O)c12 | inconclusive [activator, single point] |
| Cc1cccc(C(=O)OCC(=O)c2cccc(Br)c2)c1O | inactive |
| COc1ccc(CN(Cc2cc3cc(C)ccc3[nH]c2=O)C(=O)N(C)C)cc1 | inactive |
| CC1(C)NC(=O)N(CCCOc2ccc3c(c2)CCC3)C1=O | inconclusive [activator, partial curve, poor fit] |
| O=C1NN=C(c2ccc(Cl)cc2)CC1c1c[nH]c2ccccc12 (stereo unspecified) | inconclusive [inhibitor, single point] |
| CCn1c(CSc2nc3ccccc3s2)nnc1SCC(=O)c1ccc2c(c1)OCCO2 | inconclusive [inhibitor, single point] |
| CC1CC(C)CN(C(=O)CCn2c(=O)oc3ccccc32)C1 (stereo unspecified) | inactive |
| CC(C)CNS(=O)(=O)c1ccc(S(=O)(=O)N2CCCN(Cc3ccccc3)C2)cc1 | inconclusive [inhibitor, full curve] |
| CC(NC(=O)/C=C/c1ccco1)c1nc2ccccc2n1Cc1ccccc1F (stereo unspecified) | inconclusive [inhibitor, single point] |
| CCCCC/C=C\C/C=C\C/C=C\C/C=C\CCCCCC(N)=O | inactive |
| CCOC(CCn1c(SCc2ccc([N+](=O)[O-])cc2)nc2ccccc2c1=O)OCC | inconclusive [inhibitor, single point] |
| Cc1cccc(NC(c2ccc(C)s2)c2ccc3ccc(C)nc3c2O)n1 (stereo unspecified) | active: 5.01 µM |
| O=C(O)CCC(=O)/C=C/c1ccccc1 | inconclusive [inhibitor, partial curve] |
| CC(C)(C)c1ccc(-c2nnc(SCC(=O)NC3CCS(=O)(=O)C3)n2N)cc1 (stereo unspecified) | inconclusive [inhibitor, single point] |
| Cc1ccc(CC(=O)N2CCN(c3ccccc3F)CC2)cc1 | inconclusive [activator, partial curve] |
| CC(C)(C)c1nnc(N/N=C/c2ccccc2O)n(N)c1=O | active: 11.2 µM |
| CCOc1ccccc1C(=O)Nc1nnc(SCC(=O)Nc2cc(C)on2)s1 | inactive |
| O=C(Nc1nnc(-c2cccs2)o1)c1cccc(C(F)(F)F)c1 | active: 0.112 µM |
| CC(=O)OCCCNc1cc(Sc2nc3ccccc3s2)c2nonc2c1[N+](=O)[O-] | active: 5.01 µM |
| Nc1nc(NC(=O)c2cccc(S(=O)(=O)N3CCCCCC3)c2)nc(-c2ccccc2)n1 | inconclusive [inhibitor, single point] |
| COc1ccccc1NC(=S)NC(=O)c1c(-c2ccccc2Cl)noc1C | active: 15.8 µM |
| Cc1noc(NC(=O)c2ccc(Cl)cc2)c1Cl | inconclusive [activator, single point] |
| O=C(CN1CCN(Cc2ccccc2)CC1)N1N=CCC1c1ccccc1 (stereo unspecified) | inconclusive [inhibitor, single point] |
